# Data taken from the supplement of paper PMC8728848.
# This is one part of the list.
# Assays:
# Assay in all cases: glycan array binding signal (z-score within array); higher = stronger binding
# Conditions in all cases: glycan notation: IUPAC condensed, linker removed
# [1] = target: Gal(b1-4)GlcNAc(b1-3)Gal(b1-4)Glc
# How it was run: (§1)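 The Consortium for Functional Glycomics database supplied 3228 glycan arrays, of which those lacking an available protein sequence were dropped. The binding signal, a within-array Z-score, was averaged across arrays of the same protein sequence and across linkers. Negative scores can be read as non-binding.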
# [2] = target: Gal(b1-4)GlcNAc(b1-3)Gal(b1-4)GlcNAc
# How it was run: as §1
# [3] = target: Gal(b1-4)GlcNAc(b1-3)Gal(b1-4)GlcNAc(b1-2)Man(a1-3)[Gal(b1-4)GlcNAc(b1-3)Gal(b1-4)GlcNAc(b1-2)Man(a1-6)]Man(b1-4)GlcNAc(b1-4)GlcNAc
# How it was run: as §1
# [4] = target: Gal(b1-4)GlcNAc(b1-3)Gal(b1-4)GlcNAc(b1-2)Man(a1-3)[Gal(b1-4)GlcNAc(b1-3)Gal(b1-4)GlcNAc(b1-2)Man(a1-6)]Man(b1-4)GlcNAc(b1-4)[Fuc(a1-6)]GlcNAc
# How it was run: as §1
# [5] = target: Gal(b1-4)GlcNAc(b1-3)Gal(b1-4)GlcNAc(b1-2)[Gal(b1-4)GlcNAc(b1-3)Gal(b1-4)GlcNAc(b1-6)]Man(a1-6)[Gal(b1-4)GlcNAc(b1-3)Gal(b1-4)GlcNAc(b1-2)Man(a1-3)]Man(b1-4)GlcNAc(b1-4)GlcNAc
# How it was run: as §1
# [6] = target: Gal(b1-4)GlcNAc(b1-3)Gal(b1-4)GlcNAc(b1-2)[Gal(b1-4)GlcNAc(b1-3)Gal(b1-4)GlcNAc(b1-6)]Man(a1-6)[Gal(b1-4)GlcNAc(b1-3)Gal(b1-4)GlcNAc(b1-2)Man(a1-3)]Man(b1-4)GlcNAc(b1-4)[Fuc(a1-6)]GlcNAc
# How it was run: as §1
# [7] = target: Gal(b1-4)GlcNAc(b1-3)Gal(b1-4)GlcNAc(b1-3)Gal(b1-4)GlcNAc
# How it was run: as §1
# [8] = target: Gal(b1-4)GlcNAc(b1-3)Gal(b1-4)GlcNAc(b1-3)Gal(b1-4)GlcNAc(b1-2)Man(a1-3)[Gal(b1-4)GlcNAc(b1-3)Gal(b1-4)GlcNAc(b1-3)Gal(b1-4)GlcNAc(b1-2)Man(a1-6)]Man(b1-4)GlcNAc(b1-4)GlcNAc
# How it was run: as §1
# [9] = target: Gal(b1-4)GlcNAc(b1-3)Gal(b1-4)GlcNAc(b1-3)Gal(b1-4)GlcNAc(b1-2)Man(a1-3)[Gal(b1-4)GlcNAc(b1-3)Gal(b1-4)GlcNAc(b1-3)Gal(b1-4)GlcNAc(b1-2)Man(a1-6)]Man(b1-4)GlcNAc(b1-4)[Fuc(a1-6)]GlcNAc
# How it was run: as §1
# [10] = target: Gal(b1-4)GlcNAc(b1-3)Gal(b1-4)GlcNAc(b1-3)Gal(b1-4)GlcNAc(b1-2)[Gal(b1-4)GlcNAc(b1-3)Gal(b1-4)GlcNAc(b1-3)Gal(b1-4)GlcNAc(b1-6)]Man(a1-6)[Gal(b1-4)GlcNAc(b1-3)Gal(b1-4)GlcNAc(b1-3)Gal(b1-4)GlcNAc(b1-2)Man(a1-3)]Man(b1-4)GlcNAc(b1-4)[Fuc(a1-6)]GlcNAc
# How it was run: as §1
# [11] = target: Gal(b1-4)GlcNAc(b1-3)Gal(b1-4)GlcNAc(b1-3)Gal(b1-4)GlcNAc(b1-3)Gal(b1-4)GlcNAc(b1-2)Man(a1-3)[Gal(b1-4)GlcNAc(b1-3)Gal(b1-4)GlcNAc(b1-3)Gal(b1-4)GlcNAc(b1-3)Gal(b1-4)GlcNAc(b1-2)Man(a1-6)]Man(b1-4)GlcNAc(b1-4)GlcNAc
# How it was run: as §1
# [12] = target: Gal(b1-4)GlcNAc(b1-3)Gal(b1-4)GlcNAc(b1-3)Gal(b1-4)GlcNAc(b1-3)Gal(b1-4)GlcNAc(b1-2)Man(a1-3)[Gal(b1-4)GlcNAc(b1-3)Gal(b1-4)GlcNAc(b1-3)Gal(b1-4)GlcNAc(b1-3)Gal(b1-4)GlcNAc(b1-2)Man(a1-6)]Man(b1-4)GlcNAc(b1-4)[Fuc(a1-6)]GlcNAc
# How it was run: as §1
# [13] = target: Gal(b1-4)GlcNAc(b1-3)Gal(b1-4)GlcNAc(b1-3)Gal(b1-4)GlcNAc(b1-3)Gal(b1-4)GlcNAc(b1-2)[Gal(b1-4)GlcNAc(b1-3)Gal(b1-4)GlcNAc(b1-3)Gal(b1-4)GlcNAc(b1-3)Gal(b1-4)GlcNAc(b1-6)]Man(a1-6)[Gal(b1-4)GlcNAc(b1-3)Gal(b1-4)GlcNAc(b1-3)Gal(b1-4)GlcNAc(b1-3)Gal(b1-4)GlcNAc(b1-2)Man(a1-3)]Man(b1-4)GlcNAc(b1-4)[Fuc(a1-6)]GlcNAc
# How it was run: as §1
# [14] = target: Gal(b1-4)GlcNAc(b1-3)Gal(b1-4)GlcNAc(b1-3)Gal(b1-4)GlcNAc(b1-3)Gal(b1-4)GlcNAc(b1-3)Gal(b1-4)GlcNAc(b1-2)Man(a1-3)[Gal(b1-4)GlcNAc(b1-3)Gal(b1-4)GlcNAc(b1-3)Gal(b1-4)GlcNAc(b1-3)Gal(b1-4)GlcNAc(b1-3)Gal(b1-4)GlcNAc(b1-2)Man(a1-6)]Man(b1-4)GlcNAc(b1-4)GlcNAc
# How it was run: as §1
# [15] = target: Gal(b1-4)GlcNAc(b1-3)Gal(b1-4)GlcNAc(b1-3)Gal(b1-4)GlcNAc(b1-3)Gal(b1-4)GlcNAc(b1-3)Gal(b1-4)GlcNAc(b1-2)Man(a1-3)[Gal(b1-4)GlcNAc(b1-3)Gal(b1-4)GlcNAc(b1-3)Gal(b1-4)GlcNAc(b1-3)Gal(b1-4)GlcNAc(b1-3)Gal(b1-4)GlcNAc(b1-2)Man(a1-6)]Man(b1-4)GlcNAc(b1-4)[Fuc(a1-6)]GlcNAc
# How it was run: as §1
# [16] = target: Gal(b1-4)GlcNAc(b1-3)Gal(b1-4)GlcNAc(b1-3)Gal(b1-4)GlcNAc(b1-3)Gal(b1-4)GlcNAc(b1-3)Gal(b1-4)GlcNAc(b1-2)[Gal(b1-4)GlcNAc(b1-3)Gal(b1-4)GlcNAc(b1-3)Gal(b1-4)GlcNAc(b1-3)Gal(b1-4)GlcNAc(b1-3)Gal(b1-4)GlcNAc(b1-6)]Man(a1-6)[Gal(b1-4)GlcNAc(b1-3)Gal(b1-4)GlcNAc(b1-3)Gal(b1-4)GlcNAc(b1-3)Gal(b1-4)GlcNAc(b1-3)Gal(b1-4)GlcNAc(b1-2)Man(a1-3)]Man(b1-4)GlcNAc(b1-4)[Fuc(a1-6)]GlcNAc
# How it was run: as §1
# [17] = target: Gal(b1-4)GlcNAc(b1-3)Gal(b1-4)GlcNAc(b1-3)Gal(b1-4)GlcNAc(b1-3)Gal(b1-4)GlcNAc(b1-3)Gal(b1-4)GlcNAc(b1-3)Gal(b1-4)GlcNAc(b1-2)Man(a1-3)[Gal(b1-4)GlcNAc(b1-3)Gal(b1-4)GlcNAc(b1-3)Gal(b1-4)GlcNAc(b1-3)Gal(b1-4)GlcNAc(b1-3)Gal(b1-4)GlcNAc(b1-3)Gal(b1-4)GlcNAc(b1-2)Man(a1-6)]Man(b1-4)GlcNAc(b1-4)GlcNAc
# How it was run: as §1
# [18] = target: Gal(b1-4)GlcNAc(b1-3)Gal(b1-4)GlcNAc(b1-3)GalNAc
# How it was run: as §1
# [19] = target: Gal(b1-4)GlcNAc(b1-3)Gal(b1-4)GlcNAc(b1-3)[Gal(b1-4)GlcNAc(b1-3)Gal(b1-4)GlcNAc(b1-6)]GalNAc
# How it was run: as §1
binder,measurement,setting,value
ClecSol-Fc (Cryptosporidium parvum) (protein) CPEGWISNGEKTRCFKLVTFDRPRTFSHGFKACNDLGGTEVETRRRNGSKETNEYPVTLASVYKLSDEEAIRRTLVEQGDIHKTANGCFVGLRKYAFFRYPPGWYWIDSGSPVSVRDSEINWTSSYNASWLLRFKFPFEKCGFFDIGGLGRRPCWLIDSELSCAVCGTVAYDSGGLNPNKYSELIKQTDEIISKEPKLDLPGYNNLNCTDAWENNLSVGLCQNVSNILDSAWSSYQSSLNFPSINFNWKEDSTNEGGDQVYHNSYLDLPRYKQKKTFYWDQDPGTIPALSDEMKLIGLSAQPTYHPLDRSSSGSFESDSTESGRANEERNDTLEEMIYKQSSDSIEDILVPVTKPIFSDYSSIGRNSGVEEVYSSNVSTISSKGVVFPNTTTSSDNDFTKNNPANSSKHTSTSTTTNTTTTTTRTTTTTTTTTTTTTTTTTTTTETTTTKKSTTATKNTTTT,glycan array binding signal (z-score),[1],-0.202
same,glycan array binding signal (z-score),[2],-0.173
same,glycan array binding signal (z-score),[3],0.037
same,glycan array binding signal (z-score),[4],0.065
same,glycan array binding signal (z-score),[5],0.543
same,glycan array binding signal (z-score),[6],0.18
same,glycan array binding signal (z-score),[7],-0.245
same,glycan array binding signal (z-score),[8],-0.069
same,glycan array binding signal (z-score),[9],-0.178
same,glycan array binding signal (z-score),[10],-0.021
same,glycan array binding signal (z-score),[11],-0.173
same,glycan array binding signal (z-score),[12],0.483
same,glycan array binding signal (z-score),[13],-0.029
same,glycan array binding signal (z-score),[14],0.299
same,glycan array binding signal (z-score),[15],0.093
same,glycan array binding signal (z-score),[16],-0.031
same,glycan array binding signal (z-score),[17],-0.15
same,glycan array binding signal (z-score),[18],0.234
same,glycan array binding signal (z-score),[19],-0.114
